Source: the RNAGym collection of RNA variant scans (doi:10.1073/pnas.2313332121)
This sample is rich in variants without activity.

B1: TPR 5TU (parent)
chain: GGAUCUUCUCGAUCUAACAAAAAAGACAAAUCUGCCACAAAGCUUGAGAGCAUCUUCGGAUGCAGAGGCGGCAGCCUUCGGUGGCGCGAUAGCGCCAACGUUCUCAACUAUGACACGCAAAACGCGUGCUCCGUUGAAUGGAGUUUAUCAUG

Variants of: B1
Assay: polymerase ribozyme fitness, log enrichment relative to wild type (log ratio); higher = more active; in vitro selection for triplet polymerase activity
In short: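 A heterodimeric triplet polymerase ribozyme had each of its subunits mutagenized by PCR into a library, which was transcribed. One round of in vitro selection, done in triplicate, annealed each library with a biotinylated primer, its partner subunit and triplets, then incubated it frozen at −7 °C before gel excision of extended constructs, streptavidin-bead capture and RT-PCR. Fitness is the logarithm of genotype enrichment relative to wild-type enrichment, based on Illumina sequencing of inputs and outputs and inverse-variance-weighted replicate averages. A base-2 logarithm is used, and genotypes were kept only with ≥10 input reads and ≥1 read per output.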

Polymerase ribozyme fitness (log ratio), -3.78:
A26G G59U

Polymerase ribozyme fitness (log ratio), -1.82:
A26U C85U C105U

Polymerase ribozyme fitness (log ratio), -4.11:
A26U G48C A49U A64C U90G A137G

Polymerase ribozyme fitness (log ratio), -3.31:
A26G G92U

Polymerase ribozyme fitness (log ratio), ≤ -4.2:
A26U U33A A47G G62A G94U C105U A110U
A26U A49C
A26G U77A C87U A89C
C27A A142C
A26U U31C A52U A73G C87A A107G
A26G C76U C99U U127A
A26G C38A U53G C54G G86A C118G
A26G A40C C79U A98U C149G
A26C U55A C75A G80C G94A C105A
A26G A49U G59A G74C
A26G A28U U44C C72U C85G C96U
C27A G42C U53A G58C A66G C95G G124C
A26U A47G G48U U53A C69G C85U G128A C129A
A26U A73G C85G C118A C125G
C27A G50A C54U C95A
A26C U53G G86A C87U
A26U A41U U61G A91U C93G U127A U130A A147C
C27A G42C C75A C79A C85G U144G
C27G A52C U53G C57G C85A G86C
A26C G62U A64G C75A C85G U90G A97U C118G C125G
C27G A28U U53A A66C C105U A106C
A26G C69G A106C C108U
C27G A60U G68C C108G
C27A G59C G84A
C27G A28G G65A C93U C95G G100A
A26G C35U A60G A122U
C27A G34U U53A G71C G88U C96U U144A U146A
A26U A73U A91U C96G A137C
A26C G68C G86A C93G
C27A G88A C96A A97G G128U U135G U145A
C27G A60C U77C A97U U135A
C27A A28U A49U A66C G92A G124A
A26U A91G U127C
A26G U61A A89U G94A G133A U151G
C27A A52G G59C C76U G86A A91G C116A C125A
A26G C54U G59U G81A G128C
C27A A91G
A26U A49C G67C G71A C99G
A26G G68A
A26G C35A C79G G94C
A26U C72G G83C
C27A A41C U55A C105G U135A
A26G C57A G65U G71A G88A G136U
A26G A39U G50A C54G C69G A73C C93G G136C
C27A G71C C76U C87U G88U U111C A121G U139G
A26G U44G C51G G74U G86U
C27G C32A C54G C57A G62A C69U G84A C108A
A26C G59U A89C A113G C132G G141U
A26G A40C G42C A52G C54U C75U A121C
A26G C75U C96U
C27G A29C C43G G59C U61G C95G
A26C G86U U104G C116G G133A
A26U C35U C87A G124C
A26G U44G
A26U G67A G83A A89U A106G
A26C U31C C51U C79U U134G
A26G C32A G62U A66C C93U C95G C125A U148A
A26U G83U C95G C105A G141A U146C U151C
A26U C27G U55A G83A C125U
C27A G46U G50U U56A G70C U101G
C27G A30G A39U C87A
A26U C51U G80A
A26U G58C U102G A107U A115G
A26U A41C G84C G140A
A26U C51U A64U C125U
A26U G59C C103G A106C C132U
C27A G86U U144A
A26G A28U U102G G128U A150U
A26G A49C G88U A107C A121C G126U U146G
A26U C43U G80C G84U C93G U148A
A26C U44A A49C G70A C87G C96U A113U G124U
A26G G48A
A26U U55A G143U U144G
A26G G50U A52G G74A C76U
C27G A52G G59C A91G C105G U109G
A26G A47G G58C G67C C93A G112A A113C
A26U G48C A107C A119C
A26C U44A U55G G86A G88C
A26G A60C G65U C76G U139A A142C
A26G C36G G141U
A26G A30U C32G U44G G94A A106C G143U
A26U G80A A89G G117U
A26U C79A G83U
A26U A39C U45A A60C U61G G83C U102C U111G
A26G G42U G48C G50U G84C C87G
C27A G71A G83U A89U C131U A137U
A26G A66U C85A C95A G124C C131A
A26U C38A U55A A91U C93U A121G C132U
A26C U45G C69U G83A G88A A113U G141C
A26C G48C U82C C85G A97C
A26U A49G U101G A120G A147C
C27G C32G C51G U56A C76A A121C
A26U G48A G50A C57G A60U C118U A137G A150U
A26U U61A C87G U101C C116U A122U
A26U C38U C85A A91G U148A
A26U G74A G84A U109C C125G G141C
A26U U78G C85U U148A
A26U C35U C76A U78G
A26U C72G G81A G86C
A26U C57G G83U C118U G128A
C27G A39U G74A C87G U102G
C27A A106C A113U C125A
A26U G81A A91U C96G G126A
A26C G50A G86A C96U A137G
C27A G74A C76G G86C G128A C129U U144C
A26U U33G U45A G50A U77G C85U A120C U127C U134G
A26U G50U C75U C87A A91G A106U A107C A110C A150U
A26U C36U G42U C95G A138G
A26G G65A A66C G86A C87U A138U
A26C U31G C32G U45A G94U U101A C103G U148A
A26G A29C C79A G100A
C27A G71U A97G
C27A C54U A91C G94C
A26G G59A G84U G86C C105U C116G A138C
C27A U31G G94U C96U G136A A142U A150C
A26U A91G G140C C149A
A26G G50C C79U A150C
A26G G50U U56A C57U C85U U90G U102G
A26U U55G G86C C96U A97C C99A U102G
C27G A30U G84U C116G
A26U A49G G58C C76G G81A G92U C149U
A26U C32G U45C G50C U53G G84A C99U A137G
A26G C27G C87U U148A
A26U A28C U56G C85U G133U G143C
C27G A60G G62C G83C
C27G A37U A52C C63U G70U C96U A120G A122U U148G
A26U G42U C51U C79A G86U
C27G A40U C54G C85A C114A A147G
A26C G68C C87A A89U C103A
A26U A52G U78A C103A
A26G G42A A49G A52G C96U
A26G A73U C85A U151G
A26U G58C G68A G80U A91G A122C C123U G124U
C27G A28U A39U U55A G83C
A26U A49U U53G U61C A66U G94U C123A
A26U C36G U134A G143U U144C
C27G A40G C87A C114U
C27A U44A U55G A98U A121C
C27A C57A A66G G86U U90G A121G
A26U C99A G133U G143C U146G
A26U G48C A49C G59A C69U G92U
C27A C57G
A26G U45A G67U
C27G A29C C87G A121U
A26U C57A G83C C114U U144A
A26G C69A C108U
A26U A52U G92U A107G
A26G A73U A137C A150G
A26U G74U G84A G141C
A26G A52G G62U G74C C99A G112U G143U C149A
A26U A40C G46A A91U U101G C108U A138G
C27A C87U C103G U109G C129A A137U
A26G G46A G48C C51U G71C C103U A120G C149G
C27G A28C G48A U55A G68C C87U C108G
A26U C93U C118U C125A
A26U C27U G84A G88A U101A
A26U A41G U53A U55A A91U
A26U U44A G46A C63A G83U

Polymerase ribozyme fitness (log ratio), -1.8:
A26U C125A

Polymerase ribozyme fitness (log ratio), -3.9:
A26G C27G A40G C57U C85U C118U

Polymerase ribozyme fitness (log ratio), -3.79:
A26C U53A U56A C114U

Polymerase ribozyme fitness (log ratio), -1.63:
A26U C85U

Polymerase ribozyme fitness (log ratio), -3.7:
C27A U56A
